Experimental findings from PMC12820563 are described below.

This is one part of the list. The list includes weakly bound sequences.

The target of the assay is T1, MBP-FoxP3dN (UniProt Q99JB6).
T1 sequence: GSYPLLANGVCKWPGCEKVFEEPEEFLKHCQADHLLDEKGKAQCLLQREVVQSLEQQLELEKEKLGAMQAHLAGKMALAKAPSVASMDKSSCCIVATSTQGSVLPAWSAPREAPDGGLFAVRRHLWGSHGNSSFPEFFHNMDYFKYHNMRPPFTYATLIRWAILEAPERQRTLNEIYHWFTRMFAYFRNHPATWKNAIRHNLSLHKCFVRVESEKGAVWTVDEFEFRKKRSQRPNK
The assay can be described thus: PD-seq (MBP pull-down with sequencing). As to conditions: 20 mM Tris-HCl pH 7.5, 100 mM NaCl, 1.5 mM MgCl2, 0.4 uM protein, 0.1 uM dsDNA library, 30 min, room temperature, amylose pull-down; high values mean tight binding; double strand, one strand shown.
For the sequence “GATGATTGTTCTCCCAGCTGATGAATTGTGGTGCTCGAGTAAACAAATTTTCCTAATCTTTCTGTTCAAGCGCCATCTAC”, the binding signal (RPM ratio (pull-down/input)) is 1.35.

For “GATGATTGTTCTCCCAGCTGATGAATTTCGTCCGTCGAGTAAACAAATTTTCCTAATCTTTCTGTTCAAGCGCCATCTAC”, the binding signal (RPM ratio (pull-down/input)) was determined as 0.374.

“GATGATTGTTCTCCCAGCTGATGAATTTCCGAGTTCGAGTAAACAAATTTTCCTAATCTTTCTGTTCAAGCGCCATCTAC”: the binding signal (RPM ratio (pull-down/input)) came out at 0.383.

For “GATGATTGTTCTCCCAGCTGATGAATTCGTACAGTCGAGTAAACAAATTTTCCTAATCTTTCTGTTCAAGCGCCATCTAC”, the binding signal (RPM ratio (pull-down/input)) came out at 0.349.

As for “GATGATTGTTCTCCCAGCTGATGAATTTCCACCCTCGAGTAAACAAATTTTCCTAATCTTTCTGTTCAAGCGCCATCTAC”, the binding signal (RPM ratio (pull-down/input)) stood at 0.274.

For “GATGATTGTTCTCCCAGCTGATGAATTCAGGGATTCGAGTAAACAAATTTTCCTAATCTTTCTGTTCAAGCGCCATCTAC”, the binding signal (RPM ratio (pull-down/input)) is 0.401.

For “GATGATTGTTCTCCCAGCTGATGAATTGTCATGCTCGAGTAAACAAATTTTCCTAATCTTTCTGTTCAAGCGCCATCTAC”, the binding signal (RPM ratio (pull-down/input)) worked out at 0.724.

Turning to “GATGATTGTTCTCCCAGCTGATGAATTTGAGTGATCGAGTAAACAAATTTTCCTAATCTTTCTGTTCAAGCGCCATCTAC”, the binding signal (RPM ratio (pull-down/input)) turned out to be 0.633.

For the sequence “GATGATTGTTCTCCCAGCTGATGAATTTCTCGCCTCGAGTAAACAAATTTTCCTAATCTTTCTGTTCAAGCGCCATCTAC”, the binding signal (RPM ratio (pull-down/input)) came out at 0.486.

Regarding “GATGATTGTTCTCCCAGCTGATGAATTCCAGCGTTCGAGTAAACAAATTTTCCTAATCTTTCTGTTCAAGCGCCATCTAC”, the binding signal (RPM ratio (pull-down/input)) was 0.981.

Regarding “GATGATTGTTCTCCCAGCTGATGAATTGACAAGCTCGAGTAAACAAATTTTCCTAATCTTTCTGTTCAAGCGCCATCTAC”, the binding signal (RPM ratio (pull-down/input)) turned out to be 0.373.

As for “GATGATTGTTCTCCCAGCTGATGAATTTGACTTTTCGAGTAAACAAATTTTCCTAATCTTTCTGTTCAAGCGCCATCTAC”, the binding signal (RPM ratio (pull-down/input)) was 0.49.

For “GATGATTGTTCTCCCAGCTGATGAATTGACCGGTTCGAGTAAACAAATTTTCCTAATCTTTCTGTTCAAGCGCCATCTAC”, the binding signal (RPM ratio (pull-down/input)) amounted to 0.287.

In the case of “GATGATTGTTCTCCCAGCTGATGAATTGTAAATCTCGAGTAAACAAATTTTCCTAATCTTTCTGTTCAAGCGCCATCTAC”, the binding signal (RPM ratio (pull-down/input)) was 0.565.

Consider “GATGATTGTTCTCCCAGCTGATGAATTGAGTTGTTCGAGTAAACAAATTTTCCTAATCTTTCTGTTCAAGCGCCATCTAC”, for which the binding signal (RPM ratio (pull-down/input)) amounted to 3.69.

Take “GATGATTGTTCTCCCAGCTGATGAATTCGCGTGATCGAGTAAACAAATTTTCCTAATCTTTCTGTTCAAGCGCCATCTAC”: the binding signal (RPM ratio (pull-down/input)) is 1.17.

Regarding “GATGATTGTTCTCCCAGCTGATGAATTGAAATCCTCGAGTAAACAAATTTTCCTAATCTTTCTGTTCAAGCGCCATCTAC”, the binding signal (RPM ratio (pull-down/input)) turned out to be 0.228.

In the case of “GATGATTGTTCTCCCAGCTGATGAATTAACGAGGTCGAGTAAACAAATTTTCCTAATCTTTCTGTTCAAGCGCCATCTAC”, the binding signal (RPM ratio (pull-down/input)) is 0.25.

Consider “GATGATTGTTCTCCCAGCTGATGAATTGTCTACGTCGAGTAAACAAATTTTCCTAATCTTTCTGTTCAAGCGCCATCTAC”, for which the binding signal (RPM ratio (pull-down/input)) was 0.986.

As to “GATGATTGTTCTCCCAGCTGATGAATTCCAAGCGTCGAGTAAACAAATTTTCCTAATCTTTCTGTTCAAGCGCCATCTAC”, the binding signal (RPM ratio (pull-down/input)) was determined as 0.443.

Regarding “GATGATTGTTCTCCCAGCTGATGAATTTACTCCATCGAGTAAACAAATTTTCCTAATCTTTCTGTTCAAGCGCCATCTAC”, the binding signal (RPM ratio (pull-down/input)) is 0.462.

As to “GATGATTGTTCTCCCAGCTGATGAATTCTATATGTCGAGTAAACAAATTTTCCTAATCTTTCTGTTCAAGCGCCATCTAC”, the binding signal (RPM ratio (pull-down/input)) came out at 1.08.

Regarding “GATGATTGTTCTCCCAGCTGATGAATTTTTGATGTCGAGTAAACAAATTTTCCTAATCTTTCTGTTCAAGCGCCATCTAC”, the binding signal (RPM ratio (pull-down/input)) amounted to 0.448.

Turning to “GATGATTGTTCTCCCAGCTGATGAATTCGCAGCCTCGAGTAAACAAATTTTCCTAATCTTTCTGTTCAAGCGCCATCTAC”, the binding signal (RPM ratio (pull-down/input)) was 0.684.

Consider “GATGATTGTTCTCCCAGCTGATGAATTGCTTATGTCGAGTAAACAAATTTTCCTAATCTTTCTGTTCAAGCGCCATCTAC”, for which the binding signal (RPM ratio (pull-down/input)) worked out at 1.87.

As for “GATGATTGTTCTCCCAGCTGATGAATTTGCCGTGTCGAGTAAACAAATTTTCCTAATCTTTCTGTTCAAGCGCCATCTAC”, the binding signal (RPM ratio (pull-down/input)) is 1.22.

For the sequence “GATGATTGTTCTCCCAGCTGATGAATTAGGTTGTTCGAGTAAACAAATTTTCCTAATCTTTCTGTTCAAGCGCCATCTAC”, the binding signal (RPM ratio (pull-down/input)) worked out at 3.37.

On to “GATGATTGTTCTCCCAGCTGATGAATTACCCTCATCGAGTAAACAAATTTTCCTAATCTTTCTGTTCAAGCGCCATCTAC”, for which the binding signal (RPM ratio (pull-down/input)) was found to be 0.432.

As for “GATGATTGTTCTCCCAGCTGATGAATTCCCCGGGTCGAGTAAACAAATTTTCCTAATCTTTCTGTTCAAGCGCCATCTAC”, the binding signal (RPM ratio (pull-down/input)) was 0.141.

Take “GATGATTGTTCTCCCAGCTGATGAATTCCTCCCGTCGAGTAAACAAATTTTCCTAATCTTTCTGTTCAAGCGCCATCTAC”: the binding signal (RPM ratio (pull-down/input)) came to 0.199.

For “GATGATTGTTCTCCCAGCTGATGAATTTTTGCTATCGAGTAAACAAATTTTCCTAATCTTTCTGTTCAAGCGCCATCTAC”, the binding signal (RPM ratio (pull-down/input)) was determined as 0.803.

For the sequence “GATGATTGTTCTCCCAGCTGATGAATTGCTGCTTTCGAGTAAACAAATTTTCCTAATCTTTCTGTTCAAGCGCCATCTAC”, the binding signal (RPM ratio (pull-down/input)) was found to be 1.37.

“GATGATTGTTCTCCCAGCTGATGAATTTGGCCCATCGAGTAAACAAATTTTCCTAATCTTTCTGTTCAAGCGCCATCTAC”: the binding signal (RPM ratio (pull-down/input)) came out at 1.19.

Take “GATGATTGTTCTCCCAGCTGATGAATTGAACATATCGAGTAAACAAATTTTCCTAATCTTTCTGTTCAAGCGCCATCTAC”: the binding signal (RPM ratio (pull-down/input)) came out at 0.495.

With “GATGATTGTTCTCCCAGCTGATGAATTGCAGCCTTCGAGTAAACAAATTTTCCTAATCTTTCTGTTCAAGCGCCATCTAC”, the binding signal (RPM ratio (pull-down/input)) came to 2.83.

In the case of “GATGATTGTTCTCCCAGCTGATGAATTTTAATCTTCGAGTAAACAAATTTTCCTAATCTTTCTGTTCAAGCGCCATCTAC”, the binding signal (RPM ratio (pull-down/input)) was found to be 0.339.

For the sequence “GATGATTGTTCTCCCAGCTGATGAATTTGCTTTCTCGAGTAAACAAATTTTCCTAATCTTTCTGTTCAAGCGCCATCTAC”, the binding signal (RPM ratio (pull-down/input)) came out at 5.95.

As for “GATGATTGTTCTCCCAGCTGATGAATTGCGCAGGTCGAGTAAACAAATTTTCCTAATCTTTCTGTTCAAGCGCCATCTAC”, the binding signal (RPM ratio (pull-down/input)) amounted to 1.24.

On to “GATGATTGTTCTCCCAGCTGATGAATTCGTCGGTTCGAGTAAACAAATTTTCCTAATCTTTCTGTTCAAGCGCCATCTAC”, for which the binding signal (RPM ratio (pull-down/input)) turned out to be 0.551.

As for “GATGATTGTTCTCCCAGCTGATGAATTTGTGAGCTCGAGTAAACAAATTTTCCTAATCTTTCTGTTCAAGCGCCATCTAC”, the binding signal (RPM ratio (pull-down/input)) came to 3.75.
